{"source": "the supplement of paper PMC12067230", "note": "The data scatter; read single values as rough.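 Also: [psi-pin-] Saccharomyces cerevisiae expressing SupN fusions, induced by 100 µM Cu2SO4, selected 7 d at 30 °C without adenine and uracil, scored by deep sequencing of output versus input.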", "data": [{"assay": "amyloid nucleation score relative to library mode (yeast Sup35 reporter selection) (log enrichment difference); higher = more amyloid nucleation", "details": "random library (experiment): 1;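 active = nucleation score significantly above 0 at FDR 0.05; inactive = not significantly above 0 or absent from output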", "values": [{"sequence": "EASNCFAIRHFENKFAVETLICWNGMLRSSKDSG", "amyloid nucleation score": 3.11}, {"sequence": "EASNCFAIRHFENKFAVETLICRTVDTGVDRWLA", "amyloid nucleation score": "inactive"}, {"sequence": "EASNCFAIRHFENKFAVETLICYEWSVELSVW", "amyloid nucleation score": 0.864}, {"sequence": "EASNCFAIRHFENKFAVETLICYALPMDRGDDGQ", "amyloid nucleation score": 0}, {"sequence": "EASNCFAIRHFENKFAVETLICRSEYEKGTYIVL", "amyloid nucleation score": "inactive"}, {"sequence": "EASNCFAIRHFENKFAVETLICASTCMYDTQLI", "amyloid nucleation score": "inactive"}, {"sequence": "EASNCFAIRHFENKFAVETLICGSAMDVVAGKTR", "amyloid nucleation score": "inactive"}, {"sequence": "EASNCFAIRHFENKFAVETLICYFLDLR", "amyloid nucleation score": "inactive"}, {"sequence": "EASNCFAIRHFENKFAVETLICKYMW", "amyloid nucleation score": "inactive"}, {"sequence": "EASNCFAIRHFENKFAVETLICDSVVHPYYGLVW", "amyloid nucleation score": "inactive"}, {"sequence": "EASNCFAIRHFENKFAVETLICARWRKPNSMCAH", "amyloid nucleation score": "inactive"}, {"sequence": "EASNCFAIRHFENKFAVETLICVWSFVLKIWKCA", "amyloid nucleation score": "inactive"}, {"sequence": "EASNCFAIRHFENKFAVETLICEDMSAVYMVGPL", "amyloid nucleation score": -0.317}, {"sequence": "EASNCFAIRHFENKFAVETLICDYLRLVPRVCRC", "amyloid nucleation score": "inactive"}, {"sequence": "EASNCFAIRHFENKFAVETLICGLKKQCRPGCLT", "amyloid nucleation score": "inactive"}, {"sequence": "EASNCFAIRHFENKFAVETLICGYQWSLCYDSVI", "amyloid nucleation score": "inactive"}, {"sequence": "EASNCFAIRHFENKFAVETLICFLFEVRVCWRTR", "amyloid nucleation score": "inactive"}, {"sequence": "EASNCFAIRHFENKFAVETLICGRVGHCVSSE", "amyloid nucleation score": "inactive"}, {"sequence": "EASNCFAIRHFENKFAVETLICRSYDCYVPLSSE", "amyloid nucleation score": "inactive"}, {"sequence": "EASNCFAIRHFENKFAVETLICATGRKDTCKTWT", "amyloid nucleation score": "inactive"}, {"sequence": "EASNCFAIRHFENKFAVETLICDGAIPRLSASRR", "amyloid nucleation score": "inactive"}, {"sequence": "EASNCFAIRHFENKFAVETLICEDSTRASLGAVP", "amyloid nucleation score": "inactive"}, {"sequence": "EASNCFAIRHFENKFAVETLICFQRRHL", "amyloid nucleation score": 1.29}, {"sequence": "EASNCFAIRHFENKFAVETLICERSPVQTAGMAD", "amyloid nucleation score": "inactive"}, {"sequence": "EASNCFAIRHFENKFAVETLICGFEAVAG", "amyloid nucleation score": "inactive"}, {"sequence": "EASNCFAIRHFENKFAVETLICVVRKGLVVLWVW", "amyloid nucleation score": "inactive"}, {"sequence": "EASNCFAIRHFENKFAVETLICLLSSSCPGAYAL", "amyloid nucleation score": "inactive"}, {"sequence": "EASNCFAIRHFENKFAVETLICISLYLSCVRQGM", "amyloid nucleation score": "inactive"}, {"sequence": "EASNCFAIRHFENKFAVETLICYYAMLKGFICAL", "amyloid nucleation score": -0.405}, {"sequence": "EASNCFAIRHFENKFAVETLICTVQSGSSKSRFR", "amyloid nucleation score": 0.588}, {"sequence": "EASNCFAIRHFENKFAVETLICIVHVN", "amyloid nucleation score": "inactive"}, {"sequence": "EASNCFAIRHFENKFAVETLICDGCRELICVMKP", "amyloid nucleation score": "inactive"}, {"sequence": "EASNCFAIRHFENKFAVETLICGKGARGRPSWRG", "amyloid nucleation score": "inactive"}, {"sequence": "EASNCFAIRHFENKFAVETLICLSWSYHADSMAF", "amyloid nucleation score": 2.87}, {"sequence": "EASNCFAIRHFENKFAVETLICQEDVMEGAEMAP", "amyloid nucleation score": "inactive"}, {"sequence": "EASNCFAIRHFENKFAVETLICGFGPSERAARRL", "amyloid nucleation score": 1.34}, {"sequence": "EASNCFAIRHFENKFAVETLICLGDFLCSVGERR", "amyloid nucleation score": 8.28}, {"sequence": "EASNCFAIRHFENKFAVETLICGDPNATPFMWFR", "amyloid nucleation score": "inactive"}, {"sequence": "EASNCFAIRHFENKFAVETLICDDWQDRNAEQWV", "amyloid nucleation score": "inactive"}, {"sequence": "EASNCFAIRHFENKFAVETLICRIWRNTAKVVNG", "amyloid nucleation score": "inactive"}, {"sequence": "EASNCFAIRHFENKFAVETLICVLVSDYMRVVIW", "amyloid nucleation score": "inactive"}, {"sequence": "EASNCFAIRHFENKFAVETLICLTWQIGVVVDLR", "amyloid nucleation score": -0.12}, {"sequence": "EASNCFAIRHFENKFAVETLICPMNFRLVTGCEW", "amyloid nucleation score": 3}, {"sequence": "EASNCFAIRHFENKFAVETLICCRKTCCYVRLA", "amyloid nucleation score": "inactive"}, {"sequence": "EASNCFAIRHFENKFAVETLICPPGESSKNNEQG", "amyloid nucleation score": "inactive"}, {"sequence": "EASNCFAIRHFENKFAVETLICFKQAGALMFGCW", "amyloid nucleation score": "inactive"}]}, {"assay": "amyloid nucleation score relative to library mode (yeast Sup35 reporter selection) (log enrichment difference); higher = more amyloid nucleation", "details": "random library (experiment): 2", "values": [{"sequence": "EASNCFAIRHFENKFAVETLICMLNMCYVRSRVL", "amyloid nucleation score": -0.571}, {"sequence": "EASNCFAIRHFENKFAVETLICCLLWIFDDLSNL", "amyloid nucleation score": "inactive"}, {"sequence": "EASNCFAIRHFENKFAVETLICMDYILTDRVRSV", "amyloid nucleation score": "inactive"}, {"sequence": "EASNCFAIRHFENKFAVETLICCICNVVC", "amyloid nucleation score": 7.73}, {"sequence": "EASNCFAIRHFENKFAVETLICWYLQPVSRDDKW", "amyloid nucleation score": 1.49}, {"sequence": "EASNCFAIRHFENKFAVETLICGPK", "amyloid nucleation score": 2.3}, {"sequence": "EASNCFAIRHFENKFAVETLICDNLCSWDGEYMY", "amyloid nucleation score": 1.21}, {"sequence": "EASNCFAIRHFENKFAVETLICFFGN", "amyloid nucleation score": 8.6}, {"sequence": "EASNCFAIRHFENKFAVETLICLSPFALIRFKCF", "amyloid nucleation score": 4.06}, {"sequence": "EASNCFAIRHFENKFAVETLICVSWISQLSDCYR", "amyloid nucleation score": "inactive"}, {"sequence": "EASNCFAIRHFENKFAVETLICDIKPNCSRYYRS", "amyloid nucleation score": -0.0296}, {"sequence": "EASNCFAIRHFENKFAVETLICRVMG", "amyloid nucleation score": "inactive"}, {"sequence": "EASNCFAIRHFENKFAVETLICTVLLFC", "amyloid nucleation score": "inactive"}, {"sequence": "EASNCFAIRHFENKFAVETLICVISSIRGFMFVL", "amyloid nucleation score": "inactive"}, {"sequence": "EASNCFAIRHFENKFAVETLICFSEHI", "amyloid nucleation score": 1.89}, {"sequence": "EASNCFAIRHFENKFAVETLICDTPSVSDKCMCG", "amyloid nucleation score": "inactive"}, {"sequence": "EASNCFAIRHFENKFAVETLICYHKVVWNNFVCW", "amyloid nucleation score": "inactive"}, {"sequence": "EASNCFAIRHFENKFAVETLICGTRILSSLHQPW", "amyloid nucleation score": 3.16}, {"sequence": "EASNCFAIRHFENKFAVETLICRLHQ", "amyloid nucleation score": "inactive"}, {"sequence": "EASNCFAIRHFENKFAVETLICHWY", "amyloid nucleation score": 5.84}, {"sequence": "EASNCFAIRHFENKFAVETLICNCQ", "amyloid nucleation score": 7.42}, {"sequence": "EASNCFAIRHFENKFAVETLICMLNICGLYGMAR", "amyloid nucleation score": 5.22}, {"sequence": "EASNCFAIRHFENKFAVETLICIRITADWQSFIF", "amyloid nucleation score": "inactive"}, {"sequence": "EASNCFAIRHFENKFAVETLICGTVETMRGYFQV", "amyloid nucleation score": "inactive"}, {"sequence": "EASNCFAIRHFENKFAVETLICFWQ", "amyloid nucleation score": 6.21}, {"sequence": "EASNCFAIRHFENKFAVETLICEYRQNWLVQNTS", "amyloid nucleation score": "inactive"}, {"sequence": "EASNCFAIRHFENKFAVETLICCCYLYCFVSFVR", "amyloid nucleation score": "inactive"}, {"sequence": "EASNCFAIRHFENKFAVETLICVSLPDS", "amyloid nucleation score": "inactive"}, {"sequence": "EASNCFAIRHFENKFAVETLICGVSTGDAVSRYR", "amyloid nucleation score": "inactive"}, {"sequence": "EASNCFAIRHFENKFAVETLICIWIYFYCGPFYV", "amyloid nucleation score": "inactive"}, {"sequence": "EASNCFAIRHFENKFAVETLICFYLKSTFPDPGP", "amyloid nucleation score": 3.29}, {"sequence": "EASNCFAIRHFENKFAVETLICYSVTVRHQCVIV", "amyloid nucleation score": "inactive"}, {"sequence": "EASNCFAIRHFENKFAVETLICVDRTL", "amyloid nucleation score": "inactive"}, {"sequence": "EASNCFAIRHFENKFAVETLICHINFFHWFGWVI", "amyloid nucleation score": "inactive"}, {"sequence": "EASNCFAIRHFENKFAVETLICDMTWVCVGKQVT", "amyloid nucleation score": 4.99}, {"sequence": "EASNCFAIRHFENKFAVETLICGYSVKLQYCNAS", "amyloid nucleation score": "inactive"}, {"sequence": "EASNCFAIRHFENKFAVETLICVAASV", "amyloid nucleation score": "inactive"}, {"sequence": "EASNCFAIRHFENKFAVETLICCTIIHYGCHPGL", "amyloid nucleation score": 5.31}, {"sequence": "EASNCFAIRHFENKFAVETLICDVSACLILSFNS", "amyloid nucleation score": 5.12}, {"sequence": "EASNCFAIRHFENKFAVETLICRYIKHQCSLGKC", "amyloid nucleation score": "inactive"}]}, {"assay": "amyloid nucleation score relative to library mode (yeast Sup35 reporter selection) (log enrichment difference); higher = more amyloid nucleation; sequences are the first 22 residues of the Bri2 peptide extended by up to 12 random residues", "details": "random library (experiment): 3", "values": [{"sequence": "EASNCFAIRHFENKFAVETLICVKVMM", "amyloid nucleation score": "inactive"}, {"sequence": "EASNCFAIRHFENKFAVETLICPMSVMPNAGVRM", "amyloid nucleation score": "inactive"}, {"sequence": "EASNCFAIRHFENKFAVETLICEGPLLTCKGLTE", "amyloid nucleation score": "inactive"}, {"sequence": "EASNCFAIRHFENKFAVETLICKYDMGCIVCRCV", "amyloid nucleation score": 5.46}, {"sequence": "EASNCFAIRHFENKFAVETLICWWEGKRLRRWRM", "amyloid nucleation score": "inactive"}, {"sequence": "EASNCFAIRHFENKFAVETLICAAPMSVCVWNAK", "amyloid nucleation score": 8.74}, {"sequence": "EASNCFAIRHFENKFAVETLICFVLWVGWELQRE", "amyloid nucleation score": "inactive"}, {"sequence": "EASNCFAIRHFENKFAVETLICKLEVMDIGNFLP", "amyloid nucleation score": 3.84}, {"sequence": "EASNCFAIRHFENKFAVETLICLPQCCTPIVGGS", "amyloid nucleation score": 0.758}, {"sequence": "EASNCFAIRHFENKFAVETLICELNGHG", "amyloid nucleation score": "inactive"}, {"sequence": "EASNCFAIRHFENKFAVETLICLGGS", "amyloid nucleation score": "inactive"}, {"sequence": "EASNCFAIRHFENKFAVETLICPSPTMVDCWRG", "amyloid nucleation score": "inactive"}, {"sequence": "EASNCFAIRHFENKFAVETLICMAWGVQGTQLRG", "amyloid nucleation score": "inactive"}, {"sequence": "EASNCFAIRHFENKFAVETLICTLSLICPCLVFG", "amyloid nucleation score": 5.07}, {"sequence": "EASNCFAIRHFENKFAVETLICRNDLTTTFGAHL", "amyloid nucleation score": 3.6}, {"sequence": "EASNCFAIRHFENKFAVETLICERAWRHGVRGTR", "amyloid nucleation score": "inactive"}, {"sequence": "EASNCFAIRHFENKFAVETLICPFLSGLSWMTMM", "amyloid nucleation score": 0.238}, {"sequence": "EASNCFAIRHFENKFAVETLICMKMEGLIGEQCE", "amyloid nucleation score": "inactive"}, {"sequence": "EASNCFAIRHFENKFAVETLICLWVKMNRAGARA", "amyloid nucleation score": "inactive"}, {"sequence": "EASNCFAIRHFENKFAVETLICDHHRRAMPRLQW", "amyloid nucleation score": "inactive"}, {"sequence": "EASNCFAIRHFENKFAVETLICAPYYATGEGPRK", "amyloid nucleation score": "inactive"}, {"sequence": "EASNCFAIRHFENKFAVETLICRQAKPLHGSGTG", "amyloid nucleation score": -0.0526}, {"sequence": "EASNCFAIRHFENKFAVETLICLRRIVARVSARC", "amyloid nucleation score": "inactive"}, {"sequence": "EASNCFAIRHFENKFAVETLICEN", "amyloid nucleation score": "inactive"}, {"sequence": "EASNCFAIRHFENKFAVETLICYRMTFYQAMYLC", "amyloid nucleation score": "inactive"}, {"sequence": "EASNCFAIRHFENKFAVETLICLSAAYVWVDYRH", "amyloid nucleation score": "inactive"}, {"sequence": "EASNCFAIRHFENKFAVETLICALHSVMWGPALS", "amyloid nucleation score": "inactive"}, {"sequence": "EASNCFAIRHFENKFAVETLICVSAMGAWASRRW", "amyloid nucleation score": "inactive"}, {"sequence": "EASNCFAIRHFENKFAVETLICKRRVRTPLCQYW", "amyloid nucleation score": "inactive"}, {"sequence": "EASNCFAIRHFENKFAVETLICVPWFSRFHQGMS", "amyloid nucleation score": 8.14}, {"sequence": "EASNCFAIRHFENKFAVETLICQLLFRCSVSFSS", "amyloid nucleation score": "inactive"}, {"sequence": "EASNCFAIRHFENKFAVETLICNGHRDARTLVWE", "amyloid nucleation score": "inactive"}]}]}
